# Assay results taken from PubChem BioAssay AID540267 (National Center for Advancing Translational Sciences (NCATS), 2011).
# “And” between values parts separate entries of the source, which are not always exact repeats. Equal entries are not always repeated. Hit rate of the full screen: of about 340,000 compounds, about 530 (0.16%) were called active. The inconclusive results got no clear call from the source; some entries with a clear call stand among them for comparison. Rule as the data show it: active = activity change below about -80%; inconclusive = between about -30% and that limit; inactive = weaker than that.
# Assay: Small Molecules that selectively kill Giardia lamblia: qHTS;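 also: parasites exposed to compound for two days anaerobically before the ATP read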
# Details: Giardia lamblia trophozoite viability; at 7.66 µM; stronger effect = lower value
# Outline: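 Giardia trophozoites, 100 cells per well, were exposed to compounds for 48 hrs at 37 deg C under anaerobic conditions; viability was then read as ATP content by bioluminescence after 15-30 min at room temperature.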
# % is scaled to controls: 0 for no effect and ±100 for the full control effect.
row,SMILES,activity change
1,COc1ccc(NS(=O)(=O)c2cc(NC(=O)C3=NN(c4ccccc4)C(=O)CC3)ccc2C)cc1,inactive: 5.34%
2,COC(=O)c1[nH]c2c(c1C)C(=O)CC(c1ccc(OC)cc1)C2 (stereo unspecified),inconclusive: -30.1% [inhibitor]
3,COC(=O)c1ccc(-c2cc(C(=O)O)c3cc4c(cc3n2)OCCO4)cc1,inconclusive: -37.8% [inhibitor]
4,COc1ccc(CCC(=O)Nc2c(C)n(C)n(-c3ccccc3)c2=O)cc1,inconclusive: -33% [inhibitor]
5,COc1cccc(/C=C/C(=O)Nc2cccc(C(C)=O)c2)c1OC,inconclusive: -36% [inhibitor]
6,O=C(c1cc(-c2ccc(Cl)cc2Cl)on1)N1CCCCCC1,inactive: 23.2%
7,COc1ccc2c(c1)c([C@@H]1[C@H](C)[C@H]3CCCC[C@H]3CN1S(=O)(=O)c1ccc(C)cc1)cn2C,inconclusive: -39.7% [inhibitor]
8,CC(C)CN(CC(C)C)C(=O)c1cc(S(=O)(=O)N2CCCCC2)c[nH]1,inconclusive: -32.6% [inhibitor]
9,O=C(Nc1ccccn1)c1sc2cc([N+](=O)[O-])ccc2c1Cl,inconclusive: -38.4% [inhibitor]
10,CCCCn1c(/C=N/Nc2nc3ccccc3[nH]2)nc2ccccc21,inactive: 1.37%
11,COCc1c(C(=O)NCCOc2ccc(Cl)cc2)oc2ccccc12,inconclusive: -31.5% [inhibitor]
12,C[n+]1ccn(CC(=O)c2cccs2)c1,inconclusive: -37% [inhibitor]
13,Cc1cc(C)cc(NC(=O)c2nnn(Cc3cc(C)ccc3C)c2N)c1,inactive: 23.4%
14,Cc1csc(NC(=O)c2cc3ccccc3o2)n1,inconclusive: -32.6% [inhibitor]
15,NC1=NC(=O)/C(=C\c2ccc(-c3ccc(Cl)cc3)o2)S1,inconclusive: -37.4% [inhibitor]
16,CCCC(=O)Nc1ccc(C(=O)Nc2ccc([N+](=O)[O-])cc2OC)cc1,inconclusive: -30.1% [inhibitor]
17,CC(C)(C)NC[C@H](O)COc1nsnc1N1CCOCC1,inactive: -17.1% and inactive: -0.453% and inconclusive: -32.6% [inhibitor]
18,CC1=C(C(=O)Nc2ccc(CC(=O)NCc3ccc(OC(C)C)cc3)cc2)SCCO1,inconclusive: -69.3% [inhibitor]
19,Cc1nn(-c2nc3ccccc3n2Cc2ccccc2)c2c1C(=O)CC(C)(C)C2,inactive: -3.37%
20,Cc1cccc(N2CCN(S(=O)(=O)c3ccc4c(c3)CCCN4C(=O)C3CCC3)CC2)c1C,inconclusive: -34% [inhibitor]
21,C[C@]12CCC(=O)C=C1CC[C@@H]1[C@@H]2[C@@H](O)C[C@@]2(C)[C@H]1CC[C@]2(O)C(=O)COC(=O)CCC(=O)O,inconclusive: -42.5% [inhibitor]
22,O=C(COC(=O)c1nc(Cl)ccc1Cl)c1ccc[nH]1,inconclusive: -36.8% [inhibitor]
23,O=C1CC(SCc2nc3ccccc3[nH]2)C(=O)N1c1ccc(F)cc1 (stereo unspecified),inactive: -0.882%
24,CN(C[C@H](Cc1ccccc1)N(C[C@@H](Cc1cccc2ccccc12)N(CCc1ccccc1)N=O)N=O)N=O,inconclusive: -33.6% [inhibitor]
25,C=CS(=O)c1sc(Cl)c(N2CCOCC2)c1[N+](=O)[O-] (stereo unspecified),inconclusive: -31.9% [inhibitor]
26,CC(C)(C)n1ncc2c(=O)n(CC(=O)OCc3ccccc3)cnc21,inconclusive: -53.9% [inhibitor]

row,SMILES,activity change
1,COc1ccc(C(=O)c2sc(NC(C)C)nc2N)cc1OC,inactive: -0.717%
2,CC(C)NC(=O)NC(=O)COC(=O)c1ccccc1Oc1ccccc1,inconclusive: -35.8% [inhibitor]
3,O=C(c1cc([N+](=O)[O-])ccc1N1CCOCC1)N1CCCCC1,inactive: 0.06%
4,Cc1cccc(-n2ncc3c(N4CCOCC4)ncnc32)c1,inconclusive: -56.6% [inhibitor]
5,Cc1ccc(S(=O)(=O)NCc2ccccn2)c(C)c1C,inactive: 7.84%
6,CCCn1nnc(NC(=O)c2ccc([N+](=O)[O-])cc2Cl)n1,inconclusive: -33.8% [inhibitor]
7,COC(=O)C12OCC34C(CC5C(C)=C(O)C(=O)CC5(C)C3C(O)C1O)OC(=O)C(OC(=O)C=C(C)C)C24 (stereo unspecified),inconclusive: -38.2% [inhibitor]
8,NC(=O)c1ccsc1NC(=O)c1ccc([N+](=O)[O-])o1,active: -95.3%
9,N/C(=N\OC(=O)c1ccc(Cl)cc1[N+](=O)[O-])c1ccccn1,inconclusive: -45.8% [inhibitor]
10,CN(C)C(CNc1ncnc2sc3c(c12)CCCC3)c1ccco1 (stereo unspecified),inconclusive: -30.7% [inhibitor]
11,C/C(Cn1nnc([N+](=O)[O-])n1)=N\NC(=O)c1ccccc1Cl,inconclusive: -34.6% [inhibitor]
12,CCCN1CNc2c(c(=O)[nH]c(=S)n2CCC(C)C)C1,inconclusive: -30.6% [inhibitor]
13,Cc1ccc(NCc2nnc(SCc3ccc(C#N)cc3)n2Cc2ccco2)c(C)c1,inactive: -2.24%
14,CC1CC(C)CN(C(=O)COC(=O)c2ccc([N+](=O)[O-])o2)C1 (stereo unspecified),inconclusive: -32.4% [inhibitor]
15,O=C(COC(=O)CNS(=O)(=O)c1ccc(Br)cc1Cl)NC1CCCC1,inactive: 11.2%
16,CCCN1C/C(=C/c2cccc([N+](=O)[O-])c2)C(=O)/C(=C/c2cccc([N+](=O)[O-])c2)C1,inactive: -3.94%
17,COc1ccccc1C(=O)COC(=O)Cc1ccccc1F,inactive: -13.7%
18,CN1CCN(c2nc(-c3ccc(Cl)s3)cs2)CC1,inconclusive: -38.7% [inhibitor]
19,CCSc1nc(N2CCOCC2)c2c(c1C#N)CC(C)(C)N(C)C2,inactive: -5.47%
20,NC(=O)c1sc(=S)n2c1[nH]c(=O)c1sccc12,inactive: 4.5%
21,CCn1c(=O)c(C(=O)NCc2ccccc2Cl)c(O)c2ccccc21,inconclusive: -38.7% [inhibitor]
22,COc1cccc2cc(-c3nnc(-c4ccccc4)o3)c(=O)oc12,inconclusive: -34.7% [inhibitor]
23,COc1ccccc1NS(=O)(=O)c1cc(NC(=O)c2cccs2)ccc1N1CCCC1,inactive: 10.5%
24,C=CCNC(=O)c1ccc(NC(=O)C2=CSCCO2)cc1,inconclusive: -31.8% [inhibitor]
25,CC(C)(C)c1ccc(C(=O)N2CCN(c3nc4ccccc4o3)CC2)cc1,inactive: -8.08%
26,CC(C)c1cc(N=NC(N)=O)cc(C(C)C)c1O,inconclusive: -32.2% [inhibitor]

row,SMILES,activity change
1,CSc1ccc(/C=C2/C(=N)N3N=C(CC(=O)N4CCCC4)SC3=NC2=O)cc1,inactive: -9.79%
2,CCOC(=O)[C@H]1[C@H]2COc3ccc(C)cc3[C@@H]2N2C(=O)c3cc(Br)ccc3NC(=O)[C@@]12C,inactive: -4.05%
3,Cc1ccsc1/C=N/NC(=O)c1nnn(-c2nonc2N)c1CN(C)c1ccccc1,inconclusive: -35.5% [inhibitor]
4,CCc1cc(=O)oc2cc(OCC(=O)NCCN3CCOCC3)c(Cl)cc12,inconclusive: -30.7% [inhibitor]
5,CCOC(=O)c1cc2c(N)c(C(=O)c3cc(C#N)c(SC)nc3C)sc2nc1C,inactive: 17.3%
6,O=C(Nc1ccc(F)cc1)c1ccc(CN2CCc3ccccc3C2)cc1,inactive: 7.27%
7,C=CC[C@]12C=C(OC)C(=O)C=C1O[C@@H](c1ccc3c(c1)OCO3)[C@H]2C,inconclusive: -33.2% [inhibitor]
8,COc1ccc(C(=O)N/N=C/C(=O)c2ccccc2)cc1,inactive: -21.9%
9,Cc1ncc([N+](=O)[O-])n1CCOC(=O)NC(NCc1ccccc1Cl)C(Cl)(Cl)Cl (stereo unspecified),active: -119%
10,O=S(=O)(c1ccc(F)cc1)N1CCN(CC(O)COc2ccccc2F)CC1 (stereo unspecified),inactive: -7.01%
11,COc1ccccc1S(=O)(=O)Cc1ccc(C(=O)NCC(OC)OC)o1,inconclusive: -65.4% [inhibitor]
12,O=C(O)CCCn1nc(-c2ccccc2)c2ccccc21,inactive: 0.116%
13,S=c1[nH]nc(CN2CCCCC2)n1Cc1ccccc1,inconclusive: -32.6% [inhibitor]
14,O=C(Nc1nc2ccccc2[nH]1)c1ccc(Cl)c([N+](=O)[O-])c1,inconclusive: -34.9% [inhibitor]
15,COc1ccc(/C=C2\CCC(C3CCCC3)C2=O)cc1Cn1cccn1 (stereo unspecified),inactive: 0.303%
16,COc1ccc(-c2ccc(C(c3c(C)[nH][nH]c3=O)c3c(C)[nH][nH]c3=O)o2)c([N+](=O)[O-])c1,inconclusive: -32.8% [inhibitor]
17,Cn1c(=O)c(C(=O)COC(=O)c2cc(C3CC3)nc3ccccc23)c(N)n(Cc2ccccc2)c1=O,inconclusive: -33% [inhibitor]
18,CC(C)Sc1nnc(NC(=O)c2ccc3c(c2)OCO3)s1,inconclusive: -36.7% [inhibitor]
19,O=[N+]([O-])c1nn(-c2ccc3c(c2)OCCO3)n(O)c1=NCCCO,inconclusive: -57.5% [inhibitor]
20,CC(C)CC(=O)N1CCN(Cc2ccccc2Cl)CC1,inactive: -25.4%
21,Cc1ccnc(NC(=O)c2cc3ccccc3o2)c1,inconclusive: -40.6% [inhibitor]
22,CCn1c(CCCNC(=O)c2cccs2)nc2ccccc21,inconclusive: -32.4% [inhibitor]
23,O=C(Nc1ccc(N2CCCCC2)cc1)c1ccc([N+](=O)[O-])o1,active: -85.1%
24,COc1cccc(-c2ccc3ncnc(NCc4ccc5c(c4)OCO5)c3c2)c1,inconclusive: -41.5% [inhibitor]
